Some of the results follow. No stated cut-off is given here; in the data, active = 3.2 or more and inactive = the rest. Only a few entries rise above the background.
B1: ITGB7_Y753_YF (peptide)
chain: LSVEIYDRREF
B2: ITK_Y198 (peptide)
chain: RRNEEYCLLDS
B3: ITK_Y198_D202A (peptide)
chain: RRNEEYCLLAS
B4: ITK_Y336 (peptide)
chain: VTRLRYPVCFG
B5: ITK_Y588 (peptide)
chain: ASTHVYQIMNH
B6: ITK_Y588_V587I (peptide)
chain: ASTHIYQIMNH
B7: ITSN1_Y1132 (peptide)
chain: WFPANYVKLLS
B8: IVD_Y277 (peptide)
chain: ENKGVYVLMSG
B9: IVD_Y277_L279P (peptide)
chain: ENKGVYVPMSG
B10: JAK2_Y372_A377E (peptide)
chain: SLIDGYYRLTE
B11: JAK2_Y373_YF (peptide)
chain: LIDGFYRLTAD
B12: JAK2_Y613_L609S (peptide)
chain: HSVLNYGVCVC
B13: JAK2_Y613_V617F (peptide)
chain: HLVLNYGVCFC
B14: JAK2_Y931_Y931C (peptide)
chain: KLIMECLPYGS
B15: JMJD1C_Y596 (peptide)
chain: MEKEKYVSYIS
B16: JMJD1C_Y596_M591V_YF (peptide)
chain: VEKEKYVSFIS
B17: JMJD1C_Y596_YF (peptide)
chain: MEKEKYVSFIS
B18: JMJD7_Y31 (peptide)
chain: PLAVPYLDKPP
B19: JMJD7_Y31_A28G (peptide)
chain: PLGVPYLDKPP

molecular target: SHP2 C-SH2 domain E139D; assay: enrichment score (SH2-bound / input frequency) (ratio); bacterial display of known human phosphotyrosine sites (pTyr-Var adds point mutants) read by sequencing; higher = stronger binding; tyrosines were phosphorylated by kinases first; details: peptide library: pTyr-Var
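Further: displayed peptides selected on beads carrying the immobilized SH2 domain, with library peptides lacking any tyrosine serving as negative controls.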

Enrichment score, inactive:
B1 0.777, B2 0.272, B3 0.147, B4 2.19, B5 1.05, B6 2.04, B7 1.44, B8 1.15, B9 0.508, B10 0.997, B11 0.831, B12 0.8, B13 1.27, B14 0.645, B15 0.793, B16 0.771, B17 0.794, B18 1.12, B19 0.915

molecular target: SHP2 C-SH2 domain wild-type; assay: as above; details: peptide library: pTyr-Var

Enrichment score, inactive:
B1 0.826, B2 0.301, B3 0.143, B4 1.94, B5 0.978, B6 1.63, B7 2.44, B8 0.855, B9 0.706, B10 0.789, B11 0.837, B12 0.912, B13 2.06, B14 0.871, B15 0.906, B16 0.721, B17 0.558, B18 0.837, B19 1

molecular target: SHP2 N-SH2 domain L43F; assay: as above; details: peptide library: pTyr-Var

Enrichment score, inactive:
B1 0.643, B2 0.287, B3 0.217, B4 1.96, B5 0.928, B6 1.62, B7 1.01, B8 1.04, B9 0.65, B10 0.793, B11 1.31, B12 0.639, B13 1.62, B14 0.566, B15 0.7, B16 0.693, B17 0.851, B18 0.98, B19 0.942

molecular target: SHP2 N-SH2 domain T42A; assay: as above; details: peptide library: pTyr-Var

Enrichment score, inactive:
B1 0.775, B2 0.101, B3 0.16, B4 1.73, B5 2.47, B6 2.03, B7 2.01, B8 1.05, B9 0.672, B10 0.706, B11 1.04, B12 0.667, B13 1.54, B14 0.583, B15 0.782, B16 0.943, B17 0.851, B18 0.882, B19 0.703

molecular target: SHP2 N-SH2 domain T52S; assay: as above; details: peptide library: pTyr-Var

Enrichment score, inactive:
B1 0.698, B2 0.328, B3 0.287, B4 1.77, B5 1.09, B6 1.65, B7 1.38, B8 1.11, B9 0.667, B10 0.786, B11 1.57, B12 0.784, B13 1.76, B14 0.644, B15 0.773, B16 0.827, B17 0.669, B18 0.987, B19 1.11

molecular target: SHP2 N-SH2 domain wild-type; assay: as above; details: peptide library: pTyr-Var

Enrichment score, inactive:
B1 1.01, B2 0.398, B3 0.312, B4 1.99, B5 1.28, B6 1.33, B7 1.15, B8 1.01, B9 1.3, B10 0.76, B11 0.841, B12 0.894, B13 1.94, B14 0.837, B15 0.707, B16 0.872, B17 0.787, B18 1.05, B19 1.36
